Measured values from PMC7819943, “Rice protein-binding microarrays: a tool to detect cis-acting elements near promoter regions in rice”.
Some of the results follow.

Molecular target: T1, OsWOX13 (Oryza sativa, UniProt Q5QMM3 1-267)
T1 sequence: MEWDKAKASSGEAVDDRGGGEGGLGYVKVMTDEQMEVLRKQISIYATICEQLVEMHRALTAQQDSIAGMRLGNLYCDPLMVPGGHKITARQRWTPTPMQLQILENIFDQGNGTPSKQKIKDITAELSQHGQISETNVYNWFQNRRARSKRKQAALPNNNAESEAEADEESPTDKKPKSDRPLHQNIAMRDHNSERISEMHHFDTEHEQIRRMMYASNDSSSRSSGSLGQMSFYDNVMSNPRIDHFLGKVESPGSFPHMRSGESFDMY
Assay: protein-binding microarray (RPBM); PBS, 2% BSA, 51.3 ng/ul salmon testes DNA, 50 uM zinc acetate, 200 nM TF, 25 C, 1 h; high values mean tight binding
Details: protein: recombinant; tags: N-terminal polyhistidine and DsRed monomer fusion (pET32a); label: CyDye5-dUTP incorporated in the synthesized complementary strand; 3' TTTTT single-stranded linker to array surface; dsDNA, one strand shown
Outline: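 Binding signal is reported as fluorescence intensity per feature (arbitrary units) from an Axon 4000B scanner. Incubation used 200 nM of each Ni–NTA-purified, N-terminally polyhistidine- and DsRed-fused transcription factor from E. coli BL21-CodonPlus on a double-stranded custom Agilent array for 1 h at 25 °C, with 50 µM zinc acetate in the buffer, followed by washing.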

Row | Sequence | binding signal
1 | ACCTAATTATGCTAACTAGCGCATGTGCATGAGGAATCTACGGAGTCACCTAGTGCAG | 14400 fluorescence intensity (a.u.)
2 | TTAAATAAATTACTTTTAAATTAATAAAATGTTTGAATATCGGAGTCACCTAGTGCAG | 5500 fluorescence intensity (a.u.)
3 | CATCAACAGTGGAATTAATTGGATTCGGCTACACACAGAACGGAGTCACCTAGTGCAG | 6830 fluorescence intensity (a.u.)
4 | TCCCGATCGCTTCAATCATTGATCACCAAAGACACGCTAGCGGAGTCACCTAGTGCAG | 15800 fluorescence intensity (a.u.)
5 | CTAAGATTGTGGCCTGATTAACTCATACTATTATTCATTCCGGAGTCACCTAGTGCAG | 15500 fluorescence intensity (a.u.)
6 | ATTTAGACACTAATTTAGAGTATTAAATATAGACTACTTACGGAGTCACCTAGTGCAG | 8070 fluorescence intensity (a.u.)
7 | TAAGTAATTAATGGAAATTAATTAACAGTAGTAGTATCCACGGAGTCACCTAGTGCAG | 41300 fluorescence intensity (a.u.)
8 | GTGACAGACTAATTAACATGCATGCATGGGGCCTGGCCTCCGGAGTCACCTAGTGCAG | 24100 fluorescence intensity (a.u.)
9 | ACTTAACTGATCAGTAGCTACAAATGCTGACACAGCTAGGCGGAGTCACCTAGTGCAG | 25800 fluorescence intensity (a.u.)
10 | ATGACTTTATTAACAGCAGTAAAATGTTACAGTGAAATTGCGGAGTCACCTAGTGCAG | 5710 fluorescence intensity (a.u.)
11 | CGAGGAATTGATGGGCGAGATCACACCAAACAGAGCGAGCCGGAGTCACCTAGTGCAG | 11000 fluorescence intensity (a.u.)
12 | ATATAATGAGAACTAGATTGAGGAAATCACAAATCAGATGCGGAGTCACCTAGTGCAG | 22500 fluorescence intensity (a.u.)
13 | CACTGACGGAGAAATTTACCGGTCAATGGCCGTCGTCGGTCGGAGTCACCTAGTGCAG | 18000 fluorescence intensity (a.u.)
14 | GGATTTTAAATATCTGATTTGACAAAATTTGATCGGATTTCGGAGTCACCTAGTGCAG | 7790 fluorescence intensity (a.u.)
15 | AGTTAAACTTTCAATTTTGACGTGGAACTAAACACAGCCACGGAGTCACCTAGTGCAG | 6370 fluorescence intensity (a.u.)
16 | AAAACGTGTTAACGAAATTAGATAAAATCTGTACTGTCATCGGAGTCACCTAGTGCAG | 4360 fluorescence intensity (a.u.)
17 | GAGAATTAATTTACTCGGATATAATTACTTCTAATGAGGTCGGAGTCACCTAGTGCAG | 35200 fluorescence intensity (a.u.)
18 | TAAATGATTTTCCACTAGACCCACATATCATATACAACGACGGAGTCACCTAGTGCAG | 5260 fluorescence intensity (a.u.)
19 | GAGACCATATCATTGATAGATACATGCATGCATCCTACTACGGAGTCACCTAGTGCAG | 7660 fluorescence intensity (a.u.)
20 | AAATCCCACTCCAATCACCACCACCTCTTCTCCAATTCCACGGAGTCACCTAGTGCAG | 3840 fluorescence intensity (a.u.)
21 | CACAAAGCCTTAGATTGATTCCGCATGTGTTGCGTGGAGGCGGAGTCACCTAGTGCAG | 20700 fluorescence intensity (a.u.)
22 | ATAATTAGTGTCCAAATATCCGATGTGATAGGAACTTAAACGGAGTCACCTAGTGCAG | 5010 fluorescence intensity (a.u.)
23 | CTTTAATTAGGATGTGCCACTTATCTAAGGAATAAATAACCGGAGTCACCTAGTGCAG | 14300 fluorescence intensity (a.u.)
24 | GCTGATTAGTTTCACTGTTGAGCCATCGTGCAACATTGCACGGAGTCACCTAGTGCAG | 28100 fluorescence intensity (a.u.)
25 | GTGATTTTCTATATCAATCTCATGTAAACTGGATTAGGACCGGAGTCACCTAGTGCAG | 16400 fluorescence intensity (a.u.)
26 | GTGTGTGTGTAATCAATCACAATAAATAAACATCCCCTCTCGGAGTCACCTAGTGCAG | 11700 fluorescence intensity (a.u.)
27 | AACTAACTAGGAGTATTAATTAATTCCTTCCACTAATTACCGGAGTCACCTAGTGCAG | 9140 fluorescence intensity (a.u.)

Row | Sequence | binding signal
28 | GCAATGAATGAATGAATGAATAGCGGTGACTCTGGTCCTGCGGAGTCACCTAGTGCAG | 3500 fluorescence intensity (a.u.)
29 | TGCCAGACTGACAGTCACTTGTACACGCAGTATAATATCCCGGAGTCACCTAGTGCAG | 3720 fluorescence intensity (a.u.)
30 | CAACAGATTAATGACATGTCAACAGCTGCATGCTCTAGCTCGGAGTCACCTAGTGCAG | 14200 fluorescence intensity (a.u.)
31 | CGAAAATTGATTTTCCCATGCGGACATCTTAAGACCACCGCGGAGTCACCTAGTGCAG | 31500 fluorescence intensity (a.u.)
32 | AACTACCTTCCCTTAATTATTACATGAATGGCACCTCTTGCGGAGTCACCTAGTGCAG | 4730 fluorescence intensity (a.u.)
33 | GGCGAAATTGACTGCAATTTGACAATTAGATCATGCACCACGGAGTCACCTAGTGCAG | 46700 fluorescence intensity (a.u.)
34 | AGTAAATTGCATAGTGACTGCTATCAATGTAACGAACGCCCGGAGTCACCTAGTGCAG | 31500 fluorescence intensity (a.u.)
35 | GCTGACTGTTGCTGTTGTATATATGTAGTAGTAGTGTACACGGAGTCACCTAGTGCAG | 6070 fluorescence intensity (a.u.)
36 | TGCTTGATATTAATTAGGACACGCATATTTATATTATGTTCGGAGTCACCTAGTGCAG | 13900 fluorescence intensity (a.u.)
37 | GATAAATTAATAAAATTATCAAAATTTTATGATTGGTTTACGGAGTCACCTAGTGCAG | 54900 fluorescence intensity (a.u.)
38 | TTTATATTAATGATTAATTAATAATCAAGTGTCGAACACGCGGAGTCACCTAGTGCAG | 41100 fluorescence intensity (a.u.)
39 | AATGAGCCAATCCAAAACGTAATTTAGAATGGCCCGTAGCCGGAGTCACCTAGTGCAG | 8650 fluorescence intensity (a.u.)
40 | GAATGATTTGTCTTGGTAGATCTACTCTGAAGATATTATACGGAGTCACCTAGTGCAG | 7490 fluorescence intensity (a.u.)
41 | GTTAATTGAATCCATGCAACTGTAAATATGCCAATTCGGACGGAGTCACCTAGTGCAG | 29200 fluorescence intensity (a.u.)
42 | TCATTAACACATAATTAATTAAGTACTCCCTCCGTATTTTCGGAGTCACCTAGTGCAG | 20200 fluorescence intensity (a.u.)
43 | TTCGTCACAAACTAATTAAGTTTCCCCTTCACTCCAGCCACGGAGTCACCTAGTGCAG | 6480 fluorescence intensity (a.u.)
44 | TTGGTCGTAATTTTGTTCTTGCAATTAAATATTTATGGAGCGGAGTCACCTAGTGCAG | 6220 fluorescence intensity (a.u.)
45 | ACCGAATTTGTAGAATAATTTGTCAATATCTCAAATATCACGGAGTCACCTAGTGCAG | 4140 fluorescence intensity (a.u.)
46 | CATGATCGAGATGGAGTTCTAATTTATTGGTTGTATTGTACGGAGTCACCTAGTGCAG | 6510 fluorescence intensity (a.u.)
47 | ACTTACTGTCAATCCTCATTGTGTATGCAAGTTTTGTGATCGGAGTCACCTAGTGCAG | 6020 fluorescence intensity (a.u.)
48 | TGTTAGAGGATTGACTGTTCCAACAAGATTATTACAATAGCGGAGTCACCTAGTGCAG | 10200 fluorescence intensity (a.u.)
49 | CATAATCTATCAATTTTCAATTAGAAAATTGACTCTGACTCGGAGTCACCTAGTGCAG | 36300 fluorescence intensity (a.u.)
50 | CACACCTAATCGCAGTAAATTGTTACTCCCTCCGTCCCATCGGAGTCACCTAGTGCAG | 3170 fluorescence intensity (a.u.)
51 | TTCTTTTCTATCATTGGCTTTTGAATTGCTAAGAACATAACGGAGTCACCTAGTGCAG | 5040 fluorescence intensity (a.u.)
52 | TGTTATTGTCTATTTGGCTTCACCTTATTGATTTAGCAAACGGAGTCACCTAGTGCAG | 3480 fluorescence intensity (a.u.)
53 | GCCAAATCATTTGCAGAATTATTTATCTGGCATAAACAAACGGAGTCACCTAGTGCAG | 5080 fluorescence intensity (a.u.)
54 | CTTTGATTTACCCTTTCGCGCACCAAACACCAAACCCTCGCGGAGTCACCTAGTGCAG | 13300 fluorescence intensity (a.u.)
